Experimental findings from PubChem BioAssay AID463173 (ICCB-Longwood Screening Facility, Harvard Medical School, 2010) are described below.

The whole screen tested about 52,000 compounds, of which about 1,700 (3.3%) were called active. Cut-off read from the data, not from the text of the source: active = survival mostly below about 52% (no sharp cut-off); inactive = mostly above about 56%. The list shows a part of the results.

This test deals with Wild type. Kind of test: S. aureus survival, RN4220 and DeltatarO strains – OD600, teichoic acid synthesis inhibitors, primary screen (AID 463173). The following applies: S. aureus RN4220 wild type/DeltatarO growth, OD600, 18 h, stronger effect = lower value, screened at 18.75 µg/mL (by protocol).
Consider `CCCCOc1ccc(C2C(=O)N(C3CCCCC3)CC(=O)N2CCCC)cc1` (configuration not stated), for which the survival was inactive: 72%.
As for `Cc1ccc(N2CCN(c3ccc(C)cc3)C2c2ccc(C)o2)cc1`, the survival was inactive: 117%.
Under `CCn1nc(CCC(=O)O)c2ccccc2c1=O` stands inactive: 114%.
Consider `Cc1ccc(-n2ncc(C(=O)NCCCN3CCc4ccccc4C3)c2C2CCN(C(=O)OC(C)(C)C)CC2)c(C)c1`, for which the survival is inactive: 82%.
As to `CCCCN(CC)CCCNC(=O)c1ccc2c(c1)NC(=O)CN2C`, the survival was inactive: 57%.
With `COc1cccc(CNC(=O)CCc2c(C)c3ccc(O)c(C)c3oc2=O)c1` the figure was inactive: 93%; with `Cc1ccc(OCCOCCn2c(-c3ccc(Cl)cc3)nc3ccccc3c2=O)cc1`, inactive: 44%.
With `CCOC(=O)c1noc2ncn(CC(=O)Nc3ccccc3OC)c(=O)c12`, the survival is inactive: 133%.
For the compound `O=C(/C(=C\c1ccc(F)cc1)n1ccccc1=O)N1CCCC1`, the survival is inactive: 107%.
Under `COc1ccc2c(c1)CCc1c(C(=O)Nc3ccc(C#N)cc3)noc1-2` stands inactive: 77%.
Turning to `COc1cccc(CNC(=O)Cn2nc(N3CCN(c4ccccc4OC)CC3)ccc2=O)c1`, the survival was inactive: 93%.
With `CC(C(=O)N1CCCc2ccccc21)N1C(=O)c2ccccc2C1=O` (configuration not stated) the figure was inactive: 107%; with `S=C(NNc1nc(N2CCCCC2)nc(N2CCCCC2)n1)NC1CCCCC1`, inactive: 127%; with `COc1ccc(-n2c(SCc3ccccc3)nc3c([nH]c4ccccc43)c2=O)cc1`, inactive: 148%.
For the compound `Cc1c(Cl)cccc1NC(=O)C(C)n1c(=O)cc(C)c2c(C)nn(-c3ccccc3)c21` (configuration not stated), the survival was inactive: 69%.
For `COc1ccc(C)cc1NC(=O)CN1C(=O)COc2ccc(S(=O)(=O)N3CCC(C)CC3)cc21`, the survival is inactive: 89%.
Consider `CCCc1[nH]nc2c1C(CCC)C(C#N)=C(N)O2` (configuration not stated), for which the survival is inactive: 96%.
With `CCOc1ccc(-n2c(=O)c3c(C)c(C)sc3n(Cc3ccccc3C)c2=O)cc1` the figure was inactive: 89%; with `Cc1n[nH]c(=S)n1CC(=O)N1c2ccccc2CCc2ccccc21`, inactive: 102%; with `CNC(=O)c1c(NC(=O)c2nc(SCc3ccc(C)cc3)ncc2Cl)sc2c1CCCC2`, inactive: 79%.
Regarding `O=C(CNC1CC1)NCc1cccs1`, the survival is inactive: 98%.
As for `CCOC(=O)c1cc(S(=O)(=O)N2CCN(c3cccc(C)c3C)CC2)[nH]n1`, the survival is inactive: 72%.
With `Cc1ccc(NC(=O)Nc2cn(CC(C)C)c(=O)c3ccccc23)cc1N(C)C`, the survival was inactive: 71%.
With `COc1cccc(CNC(=O)C2CCN(C(=O)c3cnn(-c4ccccc4)c3-n3cccc3)CC2)c1` the figure was inactive: 81%; with `COc1ccccc1OCC(=O)N1CCC(c2nc3ccccc3o2)CC1`, active: -12%.
With `Cc1ccc(-n2ncc(C(=O)NC3CCCCC3)c2C2CCN(C(=O)OC(C)(C)C)CC2)cc1` the figure was inactive: 136%.
For `CCN(c1ccccc1C)S(=O)(=O)c1nnc(NC(=O)c2ccco2)s1`, the survival is inactive: 49%.
Under `COc1ccc(Nc2nnc(-c3ccc(C)c(S(=O)(=O)NCCO)c3)c3ccccc23)cc1C(N)=O` stands inactive: 70%; under `CCCS(=O)(=O)c1ncc(Cl)c(C(=O)Nc2c(C(=O)Nc3ccccc3)oc3ccccc23)n1`, inactive: 62%; under `COc1ccc(-c2c(C)nn3c(C(F)(F)F)cc(-c4ccccc4)nc23)cc1OC`, inactive: 72%.
Regarding `COc1ccc(N(C)C(=O)c2cc3c(s2)-c2c(C)cccc2OC3)c(OC)c1`, the survival was active: 12%.
With `Cc1ccc(NC(=O)c2c(C)oc3c2C2=NCCN2C=N3)cc1F` the figure was inactive: 76%.
On to `COc1ccc(CNc2nc3c(-c4cccc(F)c4)nnn3c3ccccc23)cc1`, for which the survival is inactive: 86%.
Under `CCc1c(C)nc2cc(-c3cc(OC)cc(OC)c3)nn2c1NCCCN1CCOCC1` stands inactive: 99%.
Consider `CN(CC(=O)NCc1ccc(F)cc1)S(=O)(=O)c1ccc2[nH]c3c(c2c1)CCCC3`, for which the survival is inactive: 128%.
In the case of `COC(=O)c1cc2sccc2n1CC(=O)Nc1ccc(OC)c(OC)c1`, the survival was inactive: 76%.
Consider `Cc1cccn2c(=O)cc(CSc3nnc(NC(=O)COc4ccccc4)s3)nc12`, for which the survival was inactive: 71%.
With `O=C(Cn1cccc1C(=O)c1ccccc1)NCc1ccccc1Cl` the figure was inactive: 87%.
Under `O=C(Nc1cccnc1)c1cc(-c2ccc(Cl)cc2)on1` stands inactive: 84%; under `O=C(c1ccc2c(c1)N(Cc1cccc(F)c1)C(=O)c1ccccc1S2)N1CCC2(CC1)OCCO2`, inactive: 77%.
Under `COc1ccc(C2=C(N3CCN(c4cc(C)ccc4C)CC3)c3ccccc3C2=O)cc1` stands inactive: 41%.
`CCc1ccc(-n2c(=O)c3sc4ccccc4c3n(CC(=O)NCc3ccccc3)c2=O)cc1`: the survival is inactive: 96%.
With `Cc1c(Cl)cccc1NC(c1ccc(F)cc1)c1nnc(-c2ccccc2)o1` (configuration not stated) the figure was inactive: 112%; with `O=C(CNCC1CCCCC1)Nc1ccccc1N1CCCCC1`, inactive: 100%; with `Cc1ccc(-n2c(=O)c3c4c(sc3n(CC(=O)Nc3cccc(Cl)c3)c2=O)CCCCC4)cc1C`, inactive: 103%.
With `Fc1ccc(C(NCCc2ccccc2)c2nnc(-c3ccccc3Cl)o2)cc1` (configuration not stated) the figure was inactive: 94%; with `Cc1ccc(C)c(CN2CCCN(CC(=O)Nc3ccc(C)c(C)c3)S2(=O)=O)c1`, inactive: 73%.
As to `COc1ccc2nc(SCC(=O)O)[nH]c2c1`, the survival is inactive: 100%.
With `Cc1ccc(S(=O)(=O)NCc2nc3nc(C)cc(C)n3n2)cc1` the figure was inactive: 120%.
Under `Cc1cccc(C)c1OCC(=O)NC(Cc1c[nH]c2ccccc12)C(=O)O` (configuration not stated) stands inactive: 139%; under `CSc1nnc(C2CCCN(CC(=O)N3CCCC3)C2)n1C` (configuration not stated), inactive: 84%; under `CCOC(=O)c1c(S(=O)(=O)N2CCC(C(=O)N3CCN(c4ccccc4F)CC3)CC2)c(C)n(C)c1C`, inactive: 78%.
Under `Cn1cc(C(=O)NCc2ccccc2Cl)c(=O)c2cc(S(=O)(=O)N3CCCCCC3)ccc21` stands inactive: 69%; under `O=C1c2ccccc2-c2nc3ncnn3c(-c3ccc4c(c3)OCO4)c21`, inactive: 104%; under `COc1cc(Cl)c(C)cc1NC(=O)CCc1nc2cccnc2n1Cc1cccs1`, inactive: 115%.
Consider `CCN(CC)CCCNC(=O)c1ccc(Cn2c(=O)[nH]c3cc(OC)c(OC)cc3c2=O)cc1`, for which the survival was inactive: 65%.
For the compound `CCOC(=O)c1ccc(NC(=O)CCCn2c(=O)c3cccn3c3cccnc32)cc1`, the survival was inactive: 87%.
